Test results taken from article PMC7819943, “Rice protein-binding microarrays: a tool to detect cis-acting elements near promoter regions in rice”.
The list shows a part of the results.

The sequences below were run against T1, OsWOX13 (Oryza sativa, UniProt Q5QMM3 1-267) (assay: protein-binding microarray (RPBM); PBS, 2% BSA, 51.3 ng/ul salmon testes DNA, 50 uM zinc acetate, 200 nM TF, 25 C, 1 h; high values mean tight binding). Conditions: protein: recombinant; tags: N-terminal polyhistidine and DsRed monomer fusion (pET32a); label: CyDye5-dUTP incorporated in the synthesized complementary strand; 3' TTTTT single-stranded linker to array surface; dsDNA, one strand shown.
T1 sequence: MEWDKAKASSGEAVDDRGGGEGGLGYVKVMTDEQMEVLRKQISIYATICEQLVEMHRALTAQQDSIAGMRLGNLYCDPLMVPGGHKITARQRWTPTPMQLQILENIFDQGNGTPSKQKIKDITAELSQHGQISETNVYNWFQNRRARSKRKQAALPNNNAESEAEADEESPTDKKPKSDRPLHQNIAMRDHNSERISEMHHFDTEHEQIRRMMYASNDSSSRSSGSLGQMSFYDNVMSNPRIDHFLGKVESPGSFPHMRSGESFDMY
How it was run: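 Transcription factors were each fused at the N-terminus to a polyhistidine tag plus DsRed and expressed in E. coli BL21-CodonPlus before Ni–NTA purification. Binding to a double-stranded custom Agilent array was carried out with 200 nM protein at 25 °C for 1 h in PBS, 2% BSA, salmon testes DNA and 50 µM zinc acetate. The binding signal is per-feature fluorescence intensity, in arbitrary units, on an Axon 4000B scanner.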

Sequence	binding signal
CGAAAACTAAACAGATGGGAGCAGAATTATCCAATCCCAGCGGAGTCACCTAGTGCAG	8610 fluorescence intensity (a.u.)
ATTATAAACAGACAAACAGTAGAGCTCACAACTTACCCCGCGGAGTCACCTAGTGCAG	7230 fluorescence intensity (a.u.)
TGCTTGATTTGACCATCCTACATATATTTCAGAATGGTTCCGGAGTCACCTAGTGCAG	23100 fluorescence intensity (a.u.)
ACTACCCATCAATTAAACCCGCCCGATTCGCATCTAACGGCGGAGTCACCTAGTGCAG	13200 fluorescence intensity (a.u.)
TTGATTGGGATTTGATCAGAGTTCGCCGTTGCGCGCCGTCCGGAGTCACCTAGTGCAG	51200 fluorescence intensity (a.u.)
GCCTAATTAATCCATGATTAACCATAAGTGCTGCAGTAACCGGAGTCACCTAGTGCAG	33500 fluorescence intensity (a.u.)
TTAATTTACACCAGTTTTAGAAATTGGGTAATAACCTATACGGAGTCACCTAGTGCAG	4470 fluorescence intensity (a.u.)
AAGACAGAAACACCTTAATTTGTTACCAATGGAGCATATGCGGAGTCACCTAGTGCAG	4840 fluorescence intensity (a.u.)
TTAATAATTTACGCTATGCCTTTGTTCTATGGCTTCACTACGGAGTCACCTAGTGCAG	6700 fluorescence intensity (a.u.)
TTCCTGTCTATCATCGGTTCATTGCTTTGATACGCACCACCGGAGTCACCTAGTGCAG	5120 fluorescence intensity (a.u.)
ATGACAGCCCATCACAGTTTGGACATCCAGATGGGCCAAACGGAGTCACCTAGTGCAG	5080 fluorescence intensity (a.u.)
TGATAGATAGATTTGTTGTTTCGGCTCGCATTCAATTCAGCGGAGTCACCTAGTGCAG	36700 fluorescence intensity (a.u.)
ATATGATTTCTGACTCTGTTTTACCATTGTTTTGTTTGTCCGGAGTCACCTAGTGCAG	18800 fluorescence intensity (a.u.)
CTAATTACACAGTTTGTAGAGAAATCGTGAGACGAAATCTCGGAGTCACCTAGTGCAG	3360 fluorescence intensity (a.u.)
AAAGTTTGGATTTTGATTGAAATTGAAGATGATGTGACTGCGGAGTCACCTAGTGCAG	26700 fluorescence intensity (a.u.)
GCCAAGTCAATTAAAACCAGGAACAATACTATCGAGGGATCGGAGTCACCTAGTGCAG	3450 fluorescence intensity (a.u.)
GCTGACTGATTACCTTTTCTAGGGTGACCATGATGATTCACGGAGTCACCTAGTGCAG	49700 fluorescence intensity (a.u.)
CCCGTACGTGTTACCTAATCATGATGGGATGCCATAATACCGGAGTCACCTAGTGCAG	3570 fluorescence intensity (a.u.)
CATTTGCTAATGATGGATTAATTAGGCTTAATAAATTTGTCGGAGTCACCTAGTGCAG	19900 fluorescence intensity (a.u.)
AAAATTAATTTTCATATTTGGCTTCCAATGCCACGCCGAGCGGAGTCACCTAGTGCAG	34300 fluorescence intensity (a.u.)
AGTTAATGAAATAATGCCAGCCTGCTGTCTTCTGATTATCCGGAGTCACCTAGTGCAG	6010 fluorescence intensity (a.u.)
CAGAATTAGATTTCCCCGGGCCCACCCCTTTTCCATGGCCCGGAGTCACCTAGTGCAG	5280 fluorescence intensity (a.u.)
ATAAATCATAATATAGACCCTATTTAGATTTGTAGTACCACGGAGTCACCTAGTGCAG	3640 fluorescence intensity (a.u.)
CACGCAAATTAGTTAGTTAATCCTCGAGAGAGTTTGCAAGCGGAGTCACCTAGTGCAG	22400 fluorescence intensity (a.u.)
CGGAGATGATTATAGATCTTTTGGAAGGAAATCTGAGTAACGGAGTCACCTAGTGCAG	18300 fluorescence intensity (a.u.)
GATCATAATTGATAGAATGTAGGGAGAAGAAGTAGGGATGCGGAGTCACCTAGTGCAG	25700 fluorescence intensity (a.u.)
CCGCACCTAAATTGATTGATTATTAATTTAACTGCCGCTCCGGAGTCACCTAGTGCAG	65500 fluorescence intensity (a.u.)

Sequence	binding signal
TGGTATCAAAATTGCGGGTAATTAGAGGATTTAATTAAGCCGGAGTCACCTAGTGCAG	13000 fluorescence intensity (a.u.)
AGGATTGGACGTACGTGATCAAATCATTCAGTTTGGACGGCGGAGTCACCTAGTGCAG	4780 fluorescence intensity (a.u.)
ATCAACCAGTAATCAATTGACCAAGCGGTTCTTGCGCCTACGGAGTCACCTAGTGCAG	4790 fluorescence intensity (a.u.)
ATATGATAGAAAAGTTGTGTATGTATGAAATGTTTGATGTCGGAGTCACCTAGTGCAG	9060 fluorescence intensity (a.u.)
CCCTAATAAATAGGAAAGTTATATTACTGAATAGTTAAGTCGGAGTCACCTAGTGCAG	4640 fluorescence intensity (a.u.)
GAGATATTAATGCAAATTATCGGTAGCCAAAATTAATGGGCGGAGTCACCTAGTGCAG	4990 fluorescence intensity (a.u.)
CCTAATTGGGTCGCTCAGGAGACAGTATACCTTCAACTTTCGGAGTCACCTAGTGCAG	40400 fluorescence intensity (a.u.)
CTGCACTAATTATTTAGTCTCATTAGTTTTATAAAATGCACGGAGTCACCTAGTGCAG	25100 fluorescence intensity (a.u.)
GGTGACCGATGATTTTGTAAATCTCAACATATGCTGGTGTCGGAGTCACCTAGTGCAG	7180 fluorescence intensity (a.u.)
AATTGAATTTCGAAATTGAAAACCCTGGCCGGGTAGCGTACGGAGTCACCTAGTGCAG	3830 fluorescence intensity (a.u.)
CAGTGATGGAGATTTGTGATATTTCGGTGTTGGTAAGCTGCGGAGTCACCTAGTGCAG	26200 fluorescence intensity (a.u.)
TAAATTATAATGGTGTAAATTAAAACAAAAGACACATGTGCGGAGTCACCTAGTGCAG	13600 fluorescence intensity (a.u.)
TCTTGGAGTTGATTATATAAATAAATCGAACGAGCACGAGCGGAGTCACCTAGTGCAG	11200 fluorescence intensity (a.u.)
AGCTGCCAATTAAGCTGTGTGTGATGGGTAGCTAACATATCGGAGTCACCTAGTGCAG	9800 fluorescence intensity (a.u.)
CAAATTGGAACAAACCAATCCCAAGGACATCATCTTCTCGCGGAGTCACCTAGTGCAG	8830 fluorescence intensity (a.u.)
AAATATTAAACGTAGATTAATAACAAAATAAATTATAGATCGGAGTCACCTAGTGCAG	4780 fluorescence intensity (a.u.)
TCCTGTTAATTAGACATTTTAGGCGTTAAGTAAGCAGAGGCGGAGTCACCTAGTGCAG	39200 fluorescence intensity (a.u.)
TCCCATTTGTTATCTGATGATTTGTAAAACATAGGCACTTCGGAGTCACCTAGTGCAG	10700 fluorescence intensity (a.u.)
AGGGTATTGCAGCTCTAATTAATTACTCAAGTGTGTGTGCCGGAGTCACCTAGTGCAG	3500 fluorescence intensity (a.u.)
GAGATGATGAATATAATTGGTGGATTGGCTCGAGAATGTTCGGAGTCACCTAGTGCAG	36000 fluorescence intensity (a.u.)
ATGATTAAATTAACCAAATGCTTGATACTGGTATCATATACGGAGTCACCTAGTGCAG	45500 fluorescence intensity (a.u.)
GAAGCTGATTGCGAGCTCGTTCCAAGATCTCGAATCGAAGCGGAGTCACCTAGTGCAG	9340 fluorescence intensity (a.u.)
AATAGATTAGATTAATAGTAAACCACCTCAATAGTATGTCCGGAGTCACCTAGTGCAG	41100 fluorescence intensity (a.u.)
TTAATTACTATCATTAGTGTTAAGTATATATTAACTAATGCGGAGTCACCTAGTGCAG	25900 fluorescence intensity (a.u.)
TCTTAAGCTGATGATCTGTCTATTTCTGTGACAGTACCTCCGGAGTCACCTAGTGCAG	7450 fluorescence intensity (a.u.)
CTAATTAAAACTACAAATTTAATTAATCAGTGACAAACAACGGAGTCACCTAGTGCAG	14500 fluorescence intensity (a.u.)
AACTAATTGCATAGTTTGCATAGAAATCAGAATTAGTGTTCGGAGTCACCTAGTGCAG	23900 fluorescence intensity (a.u.)
